The text below walks through data of patent US10508143 (ALETA BIOTHERAPEUTICS, dated 2019).

The target of experiment [1] is T1, EGFR expressed on cells (A431 cells; 293T cells transfected with EGFR cDNA) (UniProt P00533).
T1 construct: whole, on cells; also called EGFR-positive cell
The experiment in a line: flow cytometry on A431 cells, trastuzumab-PE.

Experiment [2] concerns the target T2, CD20 on stable transfectant line 293-CD20 (UniProt P11836 1-297).
T2 construct: whole, on cells; also called CD20 expressing 293 cells
T2 sequence (looked up): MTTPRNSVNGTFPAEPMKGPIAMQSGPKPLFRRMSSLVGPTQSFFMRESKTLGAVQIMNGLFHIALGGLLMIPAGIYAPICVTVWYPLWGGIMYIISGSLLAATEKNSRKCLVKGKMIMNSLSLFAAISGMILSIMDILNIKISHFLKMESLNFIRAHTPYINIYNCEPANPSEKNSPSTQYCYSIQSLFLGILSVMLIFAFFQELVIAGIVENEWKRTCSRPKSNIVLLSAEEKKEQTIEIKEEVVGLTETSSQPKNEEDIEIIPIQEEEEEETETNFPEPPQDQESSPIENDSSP
The experiment in a line: flow cytometry on 293-CD20 cells, anti-huIgG-FITC.

B1: Her2-D4-Panitumumab scFv (VH/VL) (scFv)
chain: NRPEDECVGEGLACHQLCARGHCWGPGPTQCVNCSQFLRGQECVEECRVLQGLPREYVNARHCLPCHPECQPQNGSVTCFGPEADQCVACAHYKDPPFCVARCPSGVKPDLSY[about 40 residues omitted]GGGGSGGGGSGGGGSGGGGSQVQLQESGPGDVKPSETLSLTCTVSGGSVSSGDYYWTWIRQSPGKGLEWIGHIYYSGNTNYNPSLKSRLTISIDTSKTTFSLQLSSVTGEDTAIYYCVRDRVTGAFDIWGQGTTVTVSSASTGGGGSGGGGSGGGGSGGGGSDIQMTQSPSSLEASVGDRVTITCQASQDISNYLNWYQQKPGKSPKLLIYDASNLETGVPDRFSGSGSGTDFTFTISSLQAEDEGTYFCQHFDHLPLAFGGGTKLEIKRTHHHHHH
notes: Only domain 4 of the Her2 extracellular domain; C-terminal His tag; also called construct #58; #58
Take B1: the binding result in experiment [1] is listed as “binds”.

B2: Her2-ECD-Panitumumab scFv (VH/VL) (scFv)
chain: [about 650 residues omitted]GGGGSGGGGSGGGGSGGGGSQVQLQESGPGDVKPSETLSLTCTVSGGSVSSGDYYWTWIRQSPGKGLEWIGHIYYSGNTNYNPSLKSRLTISIDTSKTTFSLQLSSVTGEDTAIYYCVRDRVTGAFDIWGQGTTVTVSSASTGGGGSGGGGSGGGGSGGGGSDIQMTQSPSSLEASVGDRVTITCQASQDISNYLNWYQQKPGKSPKLLIYDASNLETGVPDRFSGSGSGTDFTFTISSLQAEDEGTYFCQHFDHLPLAFGGGTKLEIKRTHHHHHH
notes: C-terminal His tag; also called construct #57; #57
Take B2: the binding result in experiment [1] is recorded as “binds”.

B3: CD19-D1+2-Leu16 scFv (VL/VH)-huIgGFc (Fc fusion)
chain: PEEPLVVKVEEGDNAVLQCLKGTSDGPTQQLTWSRESPLKPFLKLSLGLPGLGIHMRPLAIWLFIFNVSQQMGGFYLCQPGPPSEKAWQPGWTVNVEGSGELFRWNVSDLGGLGCGLKNRSSEGPSSPSGKLMSPKLYVWAKDRPEIWEGEPPCLPPRDSLNQSLSQDLTMAPGSTLWLSCGVPPDSVSRGPLSWTHVHPKGPKSLLSLELKDDRPARDMWVMETGLLLPRATAQDAGKYYCHRGNLTMSFHLEITARPGGGGSGGGGSGGGGSGGGGSDIELTQSPTILSASPGEKVTMTCRASSSVNYMDWYQKKPGSSPKPWIYATSNLASGVPARFSGSGSGTSYSLTISRVEAEDAATYYCQQWSFNPPTFGGGTKLEIKRGGGGSGGGGSGGGGSMAQVKLQESGAELVKPGASVKMSCKASGYTFTSYNMHWVKQTPGQGLEWIGAIYPGNGDTSYNQKFKGKATLTADKSSSTAYMQLSSLTSEDSADYYCARSNYYGSSYWFFDVWGQGTTVTVSSAAAGDPA[human IgG1 Fc with C220P (EU numbers) omitted]
notes: also called construct #84; #84
In the case of B3, in experiment [2], the binding result is “no binding (tested: 200 µl fusion protein)”.
